# From the supplement of paper PMC3334620
# The full ranking holds about 33,000 sequences; the median of “E-score (-0.5 to 0.5)” is about -0.041, and the highest 2% start at about 0.37. The list shows a part of the results.
# Target: T1, Ecm22 (UniProt Q05958)
# T1 sequence: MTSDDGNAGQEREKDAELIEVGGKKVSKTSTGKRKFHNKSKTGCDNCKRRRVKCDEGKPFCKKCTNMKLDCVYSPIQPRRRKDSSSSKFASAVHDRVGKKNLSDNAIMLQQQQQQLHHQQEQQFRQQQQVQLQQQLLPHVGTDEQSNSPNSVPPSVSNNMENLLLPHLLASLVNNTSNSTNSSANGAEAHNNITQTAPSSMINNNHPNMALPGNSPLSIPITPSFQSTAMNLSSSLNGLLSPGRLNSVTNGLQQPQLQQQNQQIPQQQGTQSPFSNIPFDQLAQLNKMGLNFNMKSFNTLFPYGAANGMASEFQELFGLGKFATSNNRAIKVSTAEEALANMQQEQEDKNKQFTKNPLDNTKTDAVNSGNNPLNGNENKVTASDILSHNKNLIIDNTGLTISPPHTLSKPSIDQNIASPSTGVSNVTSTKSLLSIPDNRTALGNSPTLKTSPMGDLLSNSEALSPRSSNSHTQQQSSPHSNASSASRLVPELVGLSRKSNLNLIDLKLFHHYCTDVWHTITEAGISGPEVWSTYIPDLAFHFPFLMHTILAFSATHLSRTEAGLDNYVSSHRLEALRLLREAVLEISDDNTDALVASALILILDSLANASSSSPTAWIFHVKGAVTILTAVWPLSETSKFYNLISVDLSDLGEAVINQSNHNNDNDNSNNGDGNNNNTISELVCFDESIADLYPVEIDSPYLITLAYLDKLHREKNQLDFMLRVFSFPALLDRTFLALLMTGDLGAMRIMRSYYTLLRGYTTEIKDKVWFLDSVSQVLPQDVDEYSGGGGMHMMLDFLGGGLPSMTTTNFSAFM
# Assay: PBM E-score (8-mer binding enrichment) (E-score (-0.5 to 0.5)); higher = stronger / more preferred TF binding; most listed sequences are background and not binding sites
# Settings: protein concentration: 200 nM; construct: GST-full length
# In short: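 Each ungapped eight-base word and its reverse complement, pooled, received an E-score from the Universal PBM Analysis Suite. Underlying scans, normalised with masliner, recorded fluorescent anti-GST bound to GST-tagged yeast transcription factors. These were applied at about 100-200 nM to universal all-10-mer Agilent arrays double-stranded by primer extension.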
row,Sequence,PBM E-score
1,AGTGGACG,0.0993
2,ACTATTTG,-0.0828
3,AACCTGTA,-0.0704
4,CTTGGCTA,-0.219
5,CCCAGGAA,-0.176
6,CCACCCTC,-0.133
7,ATGCCGAA,0.0525
8,ATTCGAAT,-0.0782
9,GAAGACGA,0.123
10,ACGTTGCA,0.156
11,AAGAGGTA,-0.0785
12,GACATCTC,0.0453
13,AACGCTTA,-0.00672
14,CGTTGTAG,0.0854
15,TATGCGAA,0.333
16,CTTAGGCA,-0.397
17,ACCGTCAC,-0.235
18,CAAAGGAA,0.149
19,CATTTGGG,0.125
20,AAGTCTAT,-0.187
21,AGGTATCG,0.153
22,CGCTATTA,0.169
23,CTGGGGTC,-0.115
24,CACCAATA,-0.0897

row,Sequence,PBM E-score
1,CGCACGTC,0.00508
2,GAGCCGTA,0.322
3,GCAATTCA,-0.078
4,AGCTGGCG,7e-05
5,CCCCACTC,0.00604
6,ACCTGCTC,0.00367
7,CATGTAAC,-0.00076
8,TAGAGTGA,-0.268
9,AGACTAAT,-0.182
10,ACCAGATA,0.188
11,ACAAAGCT,-0.117
12,AATAGTAG,-0.0269
13,GTCATACA,-0.149
14,AAAGTACG,0.336
15,CGCAATTA,0.00541
16,GTTTGATA,0.0927
17,ATTATACC,0.104
18,CTCTAGTC,-0.181
19,TGACCCAA,-0.284
20,ATATTGCA,0.2
21,TAGCCAAA,0.0563
22,ATATCGCC,-0.0455
23,GCCTTCAA,-0.277
24,AGTGCATG,-0.0692

row,Sequence,PBM E-score
1,AACACACT,0.00223
2,CCTAGCGC,-0.311
3,ACTTTCAC,-0.05
4,CAACCGTC,-0.0801
5,AGTCGGAG,-0.122
6,GGCACGTA,0.0712
7,ATACGGGG,0.386
8,CTTTCGAC,0.0201
9,GCAACGGC,0.14
10,AAACTGGC,-0.184
11,ATCAGAAC,0.0763
12,CCTTGCGA,-0.019
13,AGGGGGTA,-0.275
14,AGCTGGCA,-0.0695
15,ACGCATAA,0.0983
16,ACACATTA,0.031
17,GCCACTAC,-0.125
18,AGCCCTGG,-0.233
19,GGCCCTCA,-0.375
20,AGTATCAT,0.166
21,AGTCTTTA,-0.0866
22,CCAAGACA,-0.257
23,CTCGCGAC,0.26
24,ATAGATAG,-0.33

row,Sequence,PBM E-score
1,ACGCACAT,0.19
2,TACGGGCA,0.357
3,CCGAAACA,0.185
4,ACACGTCA,-0.16
5,ATTCCTCA,-0.205
6,AGCTGGAA,-0.0474
7,CTTGACTA,-0.186
8,CCAAGCAG,-0.22
9,AACCAGTC,-0.105
10,AGGCGTGG,-0.211
11,AATCTGTG,-0.0802
12,AACTAGCG,0.0768
13,AGACGGCG,-0.0146
14,CTCATGAC,-0.0185
15,CTAACCCC,-0.284
16,GAGGGATA,0.104
17,CGCTTACG,0.292
18,ATTACGTG,-0.0556
19,GGATCTAA,0.0077
20,ACACTCCA,-0.028
21,CTATCAGC,-0.156
22,CCATTGAA,-0.131
